# Results as given in PubChem BioAssay AID504832 (National Center for Advancing Translational Sciences (NCATS), 2011).
# Hit rate of the full screen: of about 310,000 compounds, about 18,000 (5.8%) were called active. The inconclusive results got no clear call from the source; some entries with a clear call stand among them for comparison. Calls follow the shape of the dose curve; as a rule, active = well fitted inhibition curve with a large enough effect; inconclusive = small, poorly fitted or top-dose-only effect, or another doubt; inactive = no such curve, though single readings can be large or run the other way. Potencies of inconclusive entries are left out as doubtful fits.
# Assay: Primary qHTS for delayed death inhibitors of the malarial parasite plastid, 48 hour incubation
# Conditions: P. falciparum luciferase growth in erythrocytes; series mostly up to 28.7 µM
# In short: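 Firefly luciferase activity from engineered P. falciparum reports growth; inhibitors lower the luminescent signal. Cultures contained 2% hematocrit erythrocytes at 0.1% final parasitemia.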
# Potency is read from the fitted curve at half-maximal effect; tags tell the direction and shape of the fitted curve.
row,SMILES,Potency
1,CC1=C(C(=O)c2ccccc2)C(c2ccc(OC(F)F)cc2)NC(=S)N1 (stereo not drawn),"inconclusive [inhibitor, partial curve, poor fit]"
2,CCOC(=O)CSc1cc(C)nc2ccc(OC)cc12,"inconclusive [inhibitor, partial curve]"
3,Cc1cc(C)c(S(=O)(=O)N2CCCC(C(=O)NCc3cccnc3)C2)c(C)c1 (stereo not drawn),"inconclusive [inhibitor, partial curve]"
4,CC1(C)Cc2c(cnn2-c2ccc(F)cc2)C(NC(=O)C2=NNC(=O)CC2)C1 (stereo not drawn),inactive
5,COc1ccc(S(=O)(=O)N2CCCCCC2)cc1NC(=O)CN1C(=O)NC(C)(c2ccccc2)C1=O (stereo not drawn),active: 9.28 µM
6,Cc1ccc(Cl)cc1Nc1nc(-c2cccnc2)cs1,"inconclusive [inhibitor, single point]"
7,C=CCN1C(=O)/C(=C2/Sc3ccccc3N2CC)SC1=S,"inconclusive [inhibitor, single point]"
8,CCCC(=O)Nc1ccc(C(=O)Nc2cc(C(F)(F)F)ccc2Cl)cc1,"inconclusive [inhibitor, single point]"
9,Cc1ccc(O)c(Nc2ncnc3ccc([N+](=O)[O-])cc23)c1,"inconclusive [inhibitor, single point]"
10,O=c1[nH]cnc2c1C(c1ccccc1)c1c(nc[nH]c1=O)O2,inactive
11,COc1ccc(C(C#N)c2cnccn2)cc1OC (stereo not drawn),"inconclusive [inhibitor, single point]"
12,COc1ccc(C(Nc2ccccc2)P(=O)(Oc2ccccc2)Oc2ccccc2)cc1 (stereo not drawn),"inconclusive [inhibitor, single point]"
13,CCN1CCN(CCNC(=O)c2ccc(/C=C3/Sc4ccccc4N(Cc4cccc(C)c4)C3=O)cc2)CC1,active: 11.7 µM
14,CCOc1ccc2nc(NC(=O)CN3CCN(c4ccccn4)CC3)sc2c1,"inconclusive [inhibitor, single point]"
15,O=C(COC(=O)c1cc(=O)[nH]c(=O)[nH]1)NCc1ccccc1,inactive
16,CC(C)CC1NC(C(=O)O)Cc2c1[nH]c1ccccc21 (stereo not drawn),inactive
17,Cc1[nH]c(=O)[nH]c(=O)c1/C=N/NC(=O)[C@@H](N)CC(C)C,active: 5.22 µM
18,COc1ccccc1-n1c(SCC(N)=O)nc2sc3c(c2c1=O)CCC3,inactive
19,Cc1oncc1C(=O)N1CCCC(CO)(Cc2ccc(F)cc2F)C1 (stereo not drawn),inactive
20,CCC(=NCCO)c1c(O)n(C2CCCCC2)c(=O)[nH]c1=O,inactive
21,Cc1ccc(SCc2nc(-c3ccncc3)no2)cc1,"inconclusive [inhibitor, single point]"
22,Cc1c(C(=O)c2ccccc2)c2ccccn2c1CCc1ccccn1,inactive

row,SMILES,Potency
1,CCOc1ccc(NC(c2ccccn2)c2oc(CO)cc(=O)c2O)cc1 (stereo not drawn),inactive
2,O=C(Nc1cccc(Cl)c1)C1C2C=CC3(O2)C1C(=O)N(CCN1CCCCC1)C3C(=O)NC1CCCCC1 (stereo not drawn),"inconclusive [inhibitor, full curve, poor fit]"
3,O=C(CC1C(=O)NCCN1Cc1ccc(-c2ccccc2)cc1)NCCOc1cccnc1 (stereo not drawn),inactive
4,COc1ccc(CN2CCC(Oc3ccc(C(=O)N4CCCCC4)cc3)CC2)cc1C,"inconclusive [inhibitor, single point]"
5,CC(=O)n1cc([C@H]2C=C(C(=O)N3CCN(Cc4ccccc4)CC3)O[C@@H](OCCCCO)C2)c2ccccc21,"inconclusive [inhibitor, full curve]"
6,COc1ccccc1CN(C)C(=O)c1cc(-c2cccs2)nc2ccccc12,"inconclusive [inhibitor, partial curve, poor fit]"
7,O=C(CSc1nnc2ccc(-c3cccnc3)nn12)Nc1cccc(F)c1,"inconclusive [inhibitor, single point]"
8,O=C(NC(=S)NCCN1CCOCC1)c1ccccc1Br,"inconclusive [inhibitor, single point]"
9,CC1CCCCN1Cc1c(O)ccc2c(=O)c(-c3ccc(Cl)cc3)coc12 (stereo not drawn),active: 10.4 µM
10,CCCNS(=O)(=O)c1ccc(CCC(=O)N2CCOCC2)cc1,inactive
11,COc1ccccc1NC(=O)C1CCCN(S(=O)(=O)c2ccc3c(c2)CC(C)N3C(C)=O)C1 (stereo not drawn),"inconclusive [inhibitor, partial curve]"
12,CN(C)/C=C/C(=O)c1nnn(C2CCCCC2)c1NC1CCCCC1,active: 5.22 µM
13,COc1cc2[nH]c(=S)nc(NCc3ccccn3)c2cc1OC,"inconclusive [inhibitor, partial curve, poor fit]"
14,CC(NC(=O)[C@H](C)N1C(=O)N2CCc3c([nH]c4ccccc34)[C@@]2(C)C1=O)c1ccccc1 (stereo partly drawn),"inconclusive [inhibitor, full curve, poor fit]"
15,CCOC(=O)N1CCC(NC(=O)C2CCCN(Cc3nc(-c4ccc(CC)cc4)oc3C)C2)CC1 (stereo not drawn),"inconclusive [inhibitor, partial curve]"
16,O=C(Nc1ccc2nc(-c3ccccc3)oc2c1)c1ccco1,"inconclusive [inhibitor, single point]"
17,COc1ccc(C2=NN(C(=O)c3cccc([N+](=O)[O-])c3)C(c3cccc([N+](=O)[O-])c3)C2)cc1 (stereo not drawn),"inconclusive [inhibitor, partial curve]"
18,Cc1nn(-c2ccccn2)c2c1C(c1ccsc1)C1=C(CCCC1=O)N2 (stereo not drawn),"inconclusive [inhibitor, partial curve, poor fit]"
19,COc1ccc(N(CC(=O)Nc2cccc3ccccc23)S(C)(=O)=O)c(OC)c1,"inconclusive [inhibitor, single point]"
20,CCCN1C/C(=C/c2cccc([N+](=O)[O-])c2)C(=O)/C(=C/c2cccc([N+](=O)[O-])c2)C1,active: 14.7 µM
21,COc1ccc(CN2CCCC(C(=O)c3cccc(C(F)(F)F)c3)C2)cc1O (stereo not drawn),"inconclusive [inhibitor, partial curve]"
